The whole screen tested about 340,000 compounds, of which about 12,000 (3.5%) were called active. The inconclusive results got no clear call from the source; some entries with a clear call stand among them for comparison. The call rests on the fitted dose curve; in most records, active means well fitted inhibition curve with a large enough effect; inconclusive means small, poorly fitted or top-dose-only effect, or another doubt; inactive means no such curve, though single readings can be large or run the other way. Potencies of inconclusive entries are left out as doubtful fits.
assay: qHTS Assay for Inhibitors of Hepatitis C Virus (HCV); settings: Huh7.5.1 HCVcc-Cre (HCVcc is cell-culture hepatitis C virus) infection, luciferase reporter, 44 h; activity change, negative = inhibition: at 41.8 µM (top of the series) unless noted
How it was run: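 Infectious HCV cell culture screen: compound-treated cells (1,000/well, pre-plated 4 h) are infected with HCVcc-Cre at roughly 0.5 moi and grown 44 h. Infection is quantified by luciferase signal after 15 min substrate incubation at room temperature.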
On the % scale 0 is the no-effect control and ±100 the full control effect; potency means the concentration at half of the fitted maximal effect; tags describe the fitted curve by direction and shape.

| SMILES | Potency | activity change, negative = inhibition |
| --- | --- | --- |
| CC(=O)Nc1sc(N/N=C\c2cccc(Cl)c2)nc1-c1cccs1 | inconclusive [inhibitor, single point] |  |
| O=Cc1s/c(=N\S(=O)(=O)c2ccccc2)n(CCCCl)c1Cl | active: 4.47 µM |  |
| COc1ccc(-c2nc(-c3ccccn3)ncc2S(C)(=O)=O)cc1 |  | inactive: -8.63% |
| C=CCNC(=S)N1CCN(c2ncc3c(=O)c(C(=O)O)cn(CC)c3n2)CC1 |  | inactive: 2.85% |
| COc1cccc(CN(C)CC(=O)Nc2cccc(C(F)(F)F)c2)c1OC | active: 10 µM |  |
| Oc1ccc(Cc2ccccc2)c2cccnc12 | inconclusive [inhibitor, single point] |  |
| Cc1sc2ncnc(Sc3ccccc3C(=O)Nc3ccc(C#N)cc3)c2c1C | active: 25.1 µM |  |
| COc1ccc(Br)cc1/C=N/NC(=O)c1cc(OC)c(OC)c(OC)c1 | inconclusive [inhibitor, single point] |  |
| Cc1cc(NC(=O)CN2C(=O)N(C)C3(CCCCC3)C2=O)ccc1Br | inconclusive [inhibitor, single point] |  |
| COc1ccc(Br)cc1/C=N/NC(=O)c1cccnc1 | inconclusive [inhibitor, single point] |  |
| N#Cc1cnc(SCC(=O)c2ccccc2)nc1N |  | inactive: 7.7% |
| CNC(=O)C(=O)Nc1cc2c3c(c1)CCN3C(=O)CC2 |  | inactive: 16.9% |
| Cc1cccc(Cn2c(CN3CCN(Cc4ccccc4)CC3)nc3c2c(=O)[nH]c(=O)n3C)c1 | active: 10 µM |  |
| CCOC(=O)c1cc(=O)n(Cc2ccccc2C)c2ccccc12 | inconclusive [inhibitor, partial curve] |  |
| CN(C)S(=O)(=O)c1ccc(C(=O)NCCSc2ccccc2)cc1 | inconclusive [inhibitor, single point] |  |
| CN(C)c1ccc(NC(=O)CCN2C(=O)c3cccc([N+](=O)[O-])c3C2=O)cc1 |  | inactive: 15.2% |
| CCO/C(C)=C1/SC(=S)NC1=O | inconclusive [inhibitor, partial curve, poor fit] |  |
| Cc1ccc(-n2nc(C)c3c(C)c(CCC(=O)NCCCOC(C)C)c(C)nc32)cc1 | inconclusive [inhibitor, single point] |  |
| Cc1ccc(NC(=O)c2cccs2)cc1NC(=O)c1ccc(F)cc1 | inconclusive [inhibitor, single point] |  |
| CCOCCOC(=O)c1[nH]c2c(c1C)C(=O)CC(c1ccccc1)C2 (stereo unspecified) | inconclusive [inhibitor, partial curve, poor fit] |  |
| CCOC(=O)C1=C(C)N(c2ccc(OCC)cc2)C(=O)/C1=C\c1ccco1 | inconclusive [inhibitor, single point] |  |

Source: PubChem BioAssay AID651820 (National Center for Advancing Translational Sciences (NCATS), 2012)
